According to the supplement of paper PMC10369915:
The list shows a part of the results. Rule as the data show it: active = 3.2 or more and inactive = the rest. Most of these values are background signal.

What was measured:
Assay in all cases: enrichment score (SH2-bound / input frequency) (ratio); bacterial display of known human phosphotyrosine sites (pTyr-Var adds point mutants) read by sequencing; higher = stronger binding; tyrosines were phosphorylated by kinases first
Conditions in all cases: peptide library: pTyr-Var
[1] = target: SHP2 C-SH2 domain E139D
[2] = target: SHP2 C-SH2 domain wild-type
[3] = target: SHP2 N-SH2 domain L43F
[4] = target: SHP2 N-SH2 domain T42A
[5] = target: SHP2 N-SH2 domain T52S
[6] = target: SHP2 N-SH2 domain wild-type
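Also: displayed peptides selected on beads carrying the immobilized SH2 domain, with library peptides lacking any tyrosine serving as negative controls.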

For NYADPYRQLPY [CTNND2_Y503_Q507P], the enrichment score [1] was inactive: 0.772, the enrichment score [2] was inactive: 0.825 and the enrichment score [3] was inactive: 0.659. The enrichment score [4] was inactive: 0.589, the enrichment score [5] was inactive: 0.68 and the enrichment score [6] was inactive: 0.822.

WQQQSYLDFGI [CTNNB1_Y30_S33F] was tested, and the enrichment score [1] was inactive: 1.08, the enrichment score [2] was inactive: 1.03 and the enrichment score [3] was inactive: 1.12. For the same binder, the enrichment score [4] was inactive: 1.26, the enrichment score [5] was inactive: 1.2 and the enrichment score [6] was inactive: 0.992.

For RESYKYLPSSL [CXXC1_Y218_F219L], the enrichment score [1] was inactive: 0.872, the enrichment score [2] was inactive: 0.83 and the enrichment score [3] was inactive: 0.626. The enrichment score [4] was inactive: 0.745, the enrichment score [5] was inactive: 0.752 and the enrichment score [6] was inactive: 0.941.

With MEVEQYIFVKC [CYBB_Y324_G322E] the enrichment score [1] was inactive: 1.02, the enrichment score [2] was inactive: 1.38 and the enrichment score [3] was inactive: 1.1. The enrichment score [4] was inactive: 1.03, the enrichment score [5] was inactive: 0.878 and the enrichment score [6] was inactive: 1.48.

For FRQLQYCPSVE [CTNND2_Y508_YF], the enrichment score [1] was inactive: 0.768, the enrichment score [2] was inactive: 0.845 and the enrichment score [3] was inactive: 0.873. For the same binder, the enrichment score [4] was inactive: 0.93, the enrichment score [5] was inactive: 0.809 and the enrichment score [6] was inactive: 1.17.

With RWGQKHMTAVV [CYBA_Y72_Y72H] the enrichment score [1] was active: 4.42, the enrichment score [2] was inactive: 3.03 and the enrichment score [3] was active: 3.66. For the same binder, the enrichment score [4] was active: 3.45, the enrichment score [5] was active: 3.27 and the enrichment score [6] was inactive: 3.08.

For SSEFHYVGGFF [CTSC_Y347_YF], the enrichment score [1] was inactive: 0.892, the enrichment score [2] was inactive: 0.857 and the enrichment score [3] was inactive: 0.913. For the same binder, the enrichment score [4] was inactive: 0.724, the enrichment score [5] was inactive: 1.03 and the enrichment score [6] was inactive: 0.988.

With DLGIQYKVLKP [CTNNA1_Y177_A179V] the enrichment score [1] was inactive: 0.875, the enrichment score [2] was inactive: 0.819 and the enrichment score [3] was inactive: 0.963. The enrichment score [4] was inactive: 0.82, the enrichment score [5] was inactive: 0.723 and the enrichment score [6] was inactive: 1.

For GLAKEYTDPET [CSNK1G2_Y195_I196T], the enrichment score [1] was inactive: 0.465, the enrichment score [2] was inactive: 0.615 and the enrichment score [3] was inactive: 0.342. The enrichment score [4] was inactive: 0.574, the enrichment score [5] was inactive: 0.494 and the enrichment score [6] was inactive: 0.485.

For HESEIYGKVCF [CSRP3_Y57_C58G_YF], the enrichment score [1] was inactive: 0.902, the enrichment score [2] was inactive: 1.27 and the enrichment score [3] was inactive: 0.927. For the same binder, the enrichment score [4] was inactive: 0.66, the enrichment score [5] was inactive: 0.722 and the enrichment score [6] was inactive: 1.34.

For LVKDGYQTAQP [CSF1R_Y873_M875T], the enrichment score [1] was inactive: 0.849, the enrichment score [2] was inactive: 0.993 and the enrichment score [3] was inactive: 0.533. The enrichment score [4] was inactive: 0.468, the enrichment score [5] was inactive: 0.593 and the enrichment score [6] was inactive: 0.779.

With WQQQSYLDSEI [CTNNB1_Y30_G34E] the enrichment score [1] was inactive: 0.818, the enrichment score [2] was inactive: 0.678 and the enrichment score [3] was inactive: 0.769. The enrichment score [4] was inactive: 0.733, the enrichment score [5] was inactive: 0.821 and the enrichment score [6] was inactive: 0.639.

With FTRNFYVRAVL [CYBA_Y88_YF] the enrichment score [1] was inactive: 1.53, the enrichment score [2] was inactive: 1.54 and the enrichment score [3] was inactive: 0.929. The enrichment score [4] was inactive: 0.985, the enrichment score [5] was inactive: 0.77 and the enrichment score [6] was inactive: 1.75.

With PFTRNYFVQAV [CYBA_Y87_R90Q_YF] the enrichment score [1] was inactive: 1.15, the enrichment score [2] was inactive: 0.911 and the enrichment score [3] was inactive: 0.942. For the same binder, the enrichment score [4] was inactive: 0.982, the enrichment score [5] was inactive: 0.795 and the enrichment score [6] was inactive: 0.826.

For ISKKIYDTIHD [CTNNA3_Y614], the enrichment score [1] was inactive: 0.977, the enrichment score [2] was inactive: 0.758 and the enrichment score [3] was inactive: 0.55. The enrichment score [4] was inactive: 0.772, the enrichment score [5] was inactive: 0.749 and the enrichment score [6] was inactive: 0.733.

With WQQQSYLFSGI [CTNNB1_Y30_D32Y_YF] the enrichment score [1] was inactive: 1.43, the enrichment score [2] was inactive: 1.55 and the enrichment score [3] was inactive: 1.75. For the same binder, the enrichment score [4] was inactive: 1.57, the enrichment score [5] was inactive: 1.41 and the enrichment score [6] was inactive: 1.34.

With FSKTQYNQVPS [CXADR_Y318_YF] the enrichment score [1] was inactive: 0.909, the enrichment score [2] was inactive: 0.68 and the enrichment score [3] was inactive: 0.814. The enrichment score [4] was inactive: 0.665, the enrichment score [5] was inactive: 0.615 and the enrichment score [6] was inactive: 1.06.

In the case of WQQQSYLYSGI [CTNNB1_Y30_D32Y], the enrichment score [1] is reported as inactive: 1.02, the enrichment score [2] is reported as inactive: 1.01 and the enrichment score [3] is reported as inactive: 0.887. The enrichment score [4] was inactive: 1.06, the enrichment score [5] was inactive: 1.07 and the enrichment score [6] was inactive: 0.975.

LGRGKYSEVFE [CSNK2A1_Y50] was tested, and the enrichment score [1] was inactive: 0.776, the enrichment score [2] was inactive: 0.532 and the enrichment score [3] was inactive: 0.779. The enrichment score [4] was inactive: 0.841, the enrichment score [5] was inactive: 0.838 and the enrichment score [6] was inactive: 0.816.

In the case of HYEDGYPGGSD [CTNND1_Y221], the enrichment score [1] is reported as inactive: 0.615, the enrichment score [2] is reported as inactive: 0.541 and the enrichment score [3] is reported as inactive: 0.353. The enrichment score [4] was inactive: 0.766, the enrichment score [5] was inactive: 0.525 and the enrichment score [6] was inactive: 0.565.

With WFISFYPQVIM [CTNS_Y143_S139F] the enrichment score [1] was inactive: 0.567, the enrichment score [2] was inactive: 0.667 and the enrichment score [3] was inactive: 0.623. The enrichment score [4] was inactive: 0.619, the enrichment score [5] was inactive: 0.6 and the enrichment score [6] was inactive: 1.02.

In the case of TLGPFYPSRLF [CRYAA_Y18], the enrichment score [1] is reported as inactive: 1.17, the enrichment score [2] is reported as inactive: 0.895 and the enrichment score [3] is reported as inactive: 1.15. The enrichment score [4] was inactive: 1.16, the enrichment score [5] was inactive: 1.14 and the enrichment score [6] was inactive: 1.

LGRGKSSEVFE [CSNK2A1_Y50_Y50S] was tested, and the enrichment score [1] was inactive: 0.528, the enrichment score [2] was inactive: 0.904 and the enrichment score [3] was inactive: 0.397. For the same binder, the enrichment score [4] was inactive: 0.932, the enrichment score [5] was inactive: 0.841 and the enrichment score [6] was inactive: 0.47.

In the case of ASENVYVNIAH [CTSC_Y150], the enrichment score [1] is reported as active: 4.27, the enrichment score [2] is reported as active: 5.5 and the enrichment score [3] is reported as inactive: 3.09. For the same binder, the enrichment score [4] was active: 6.35, the enrichment score [5] was active: 3.58 and the enrichment score [6] was inactive: 2.48.

In the case of PPKFFYTRKLL [CYBB_Y41], the enrichment score [1] is reported as inactive: 0.385, the enrichment score [2] is reported as inactive: 0.275 and the enrichment score [3] is reported as inactive: 0.307. The enrichment score [4] was inactive: 0.356, the enrichment score [5] was inactive: 0.409 and the enrichment score [6] was inactive: 0.411.

For RESFKYFPSSL [CXXC1_Y218_YF], the enrichment score [1] was inactive: 1.4, the enrichment score [2] was inactive: 1.34 and the enrichment score [3] was inactive: 0.647. The enrichment score [4] was inactive: 1.61, the enrichment score [5] was inactive: 1.13 and the enrichment score [6] was inactive: 0.961.

With SEQNNYSRVAN [CWC22_Y797_R794Q] the enrichment score [1] was inactive: 0.512, the enrichment score [2] was inactive: 1.4 and the enrichment score [3] was inactive: 0.416. For the same binder, the enrichment score [4] was inactive: 0.442, the enrichment score [5] was inactive: 0.551 and the enrichment score [6] was inactive: 0.469.

With TWSSSYRSDRL [CRYBB1_Y131] the enrichment score [1] was inactive: 0.843, the enrichment score [2] was inactive: 0.727 and the enrichment score [3] was inactive: 0.721. For the same binder, the enrichment score [4] was inactive: 0.828, the enrichment score [5] was inactive: 0.825 and the enrichment score [6] was inactive: 0.902.

In the case of SPRDTYSDRSG [CTPS1_Y567], the enrichment score [1] is reported as inactive: 0.517, the enrichment score [2] is reported as inactive: 0.653 and the enrichment score [3] is reported as inactive: 0.548. The enrichment score [4] was inactive: 0.433, the enrichment score [5] was inactive: 0.582 and the enrichment score [6] was inactive: 0.609.

For TISPYYCQSLF [CRYAA_Y48_R49C], the enrichment score [1] was inactive: 1.12, the enrichment score [2] was inactive: 1.07 and the enrichment score [3] was inactive: 1.55. For the same binder, the enrichment score [4] was inactive: 0.909, the enrichment score [5] was inactive: 1.14 and the enrichment score [6] was inactive: 1.17.

QTLTDYDIRFY [CSNK2A1_Y131] was tested, and the enrichment score [1] was inactive: 0.724, the enrichment score [2] was inactive: 0.639 and the enrichment score [3] was inactive: 0.684. The enrichment score [4] was inactive: 0.718, the enrichment score [5] was inactive: 0.714 and the enrichment score [6] was inactive: 0.726.

YRQLPYCPSVE [CTNND2_Y508_Q507P] was tested, and the enrichment score [1] was inactive: 0.896, the enrichment score [2] was inactive: 0.795 and the enrichment score [3] was inactive: 0.882. The enrichment score [4] was inactive: 0.883, the enrichment score [5] was inactive: 0.965 and the enrichment score [6] was inactive: 1.

TISPYYRQSLF [CRYAA_Y48] was tested, and the enrichment score [1] was inactive: 0.794, the enrichment score [2] was inactive: 0.709 and the enrichment score [3] was inactive: 0.721. The enrichment score [4] was inactive: 0.717, the enrichment score [5] was inactive: 0.856 and the enrichment score [6] was inactive: 0.8.

With HLEKKYVRRDS [CSF1R_Y708] the enrichment score [1] was inactive: 0.61, the enrichment score [2] was inactive: 0.69 and the enrichment score [3] was inactive: 0.904. The enrichment score [4] was inactive: 0.725, the enrichment score [5] was inactive: 0.324 and the enrichment score [6] was inactive: 0.558.

In the case of YSKTQYNQVPS [CXADR_Y318], the enrichment score [1] is reported as inactive: 0.624, the enrichment score [2] is reported as inactive: 0.603 and the enrichment score [3] is reported as inactive: 0.562. For the same binder, the enrichment score [4] was inactive: 0.55, the enrichment score [5] was inactive: 0.558 and the enrichment score [6] was inactive: 0.601.

NFADPYRQLPF [CTNND2_Y503_Q507P_YF] was tested, and the enrichment score [1] was inactive: 0.905, the enrichment score [2] was inactive: 0.795 and the enrichment score [3] was inactive: 0.644. For the same binder, the enrichment score [4] was inactive: 0.622, the enrichment score [5] was inactive: 0.787 and the enrichment score [6] was inactive: 0.826.

NHQFDYTFDWT [CSNK1A1_Y294_YF] was tested, and the enrichment score [1] was inactive: 1.1, the enrichment score [2] was inactive: 1.16 and the enrichment score [3] was inactive: 1.12. For the same binder, the enrichment score [4] was inactive: 0.982, the enrichment score [5] was inactive: 1.01 and the enrichment score [6] was inactive: 1.9.
